PubChem BioAssay AID662 (National Center for Advancing Translational Sciences (NCATS), 2007)
The campaign covered roughly 71,000 compounds. About 1,800 (2.5%) were called active. Inconclusive means that the source gave no clear call. Such entries were picked first, then a sample of the others. Calls follow the shape of the dose curve; as a rule, active = well fitted activation curve with a large enough effect in the signal ratio, with a control signal flat (not every such curve was filed as active); inconclusive = small, poorly fitted or top-dose-only effect, or effect the other way, or a change in a side signal; inactive = flat fitted curve, though single readings scatter; the % refers to the signal ratio. Potencies beside an inconclusive call are fits to weak or partial responses and may not hold up.
Potency is read from the fitted curve at half-maximal effect; tags tell the direction and shape of the fitted curve.

Experiment: Cell signaling CRE-BLA (Fsk stim); as to activity change, negative = inhibition: % of control where 0% means no effect
Details: CHO CRE-bla reporter (cAMP response element driving beta-lactamase), forskolin EC10, beta-lactamase ratio; activity change, negative = inhibition: at 38.2 µM (top of the series) unless noted
How it was run: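 CRE-bla CHO cells stimulated with EC10 NKH 477 (water-soluble forskolin) and compound titrations, 3 h at 37C; beta-lactamase read with CCF4 after 2 h at room temperature. Activity from 460/530 nm emission ratio, AC50 values for positive or negative modulation.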
For `COC(=O)C1(Cc2ccccc2)C=C2C(=C(C(C)C)C(=O)C2C)CN1` (configuration not stated), the “activity change, negative = inhibition” value was inactive: -9.7%.
For `C(=N\n1cnnc1)/c1ccc2c(c1)OCO2`, the “activity change, negative = inhibition” value was inactive: 1.61%.
For `CC(=O)Oc1ccc2oc(=O)c3c(c2c1)CCCN3C(=O)CN1CCN(c2ncccn2)CC1`, the Potency was inconclusive: 12.6 µM [rising, partial curve].
With `O=C(Nc1cccc(S(=O)(=O)C(F)F)c1)c1ccc(Cl)c(S(=O)(=O)N2CCOCC2)c1` the activity change, negative = inhibition was inconclusive: -17.3%.
With `Cc1ccc(-c2cnc(-c3ccncc3)o2)cc1` the Potency was inconclusive: 5.01 µM [rising, single point].
In the case of `COCCn1c(=O)c(-c2cccs2)nc2cnc(OC)nc21`, the Potency is reported as active: 2.51 µM.
With `CCCCNC(=O)NCC(=O)Nc1ccc(F)c(F)c1` the “activity change, negative = inhibition” value was inactive: -11.9%.
With `COc1ccc(C2C(C#N)=C(C)NC3=C2C(=O)CC(C)(C)C3)c(OC)c1` (configuration not stated) the activity change, negative = inhibition was inconclusive: 22.6%.
With `O=C1CCC(c2ccccc2)(c2ccccc2)CC1` the activity change, negative = inhibition was inactive: 13.7% [at 7.6 µM].
In the case of `O=C1NCCCC1C(=O)N1CCN(C(=O)c2ccco2)CC1` (configuration not stated), the activity change, negative = inhibition is reported as inconclusive: -3.35% [at 7.6 µM].
With `CCOC(=O)c1[nH]c(C)c(C(=O)N2CCN(c3cccc(Cl)c3)CC2)c1C` the “activity change, negative = inhibition” value was inactive: -13.9%.
In the case of `CN(Cc1ccco1)c1ncnc2ccc(-c3cccc(C#N)c3)cc12`, the Potency is reported as inconclusive: 12.6 µM [rising, partial curve].
In the case of `COc1ccc(Br)cc1C(=O)O`, the activity change, negative = inhibition is reported as inconclusive: -2.54%.
In the case of `COCCSc1ccccc1C(=O)N1CCN(Cc2ccc3c(c2)OCO3)CC1`, the “activity change, negative = inhibition” value is reported as inactive: 4.38%.
In the case of `COc1ccc(CCNC(=O)c2cnc3scc(C)n3c2=O)cc1OC`, the Potency is reported as inconclusive: 10 µM [rising, partial curve].
For `CCSC(=N)N`, the activity change, negative = inhibition was inconclusive: -8.67%.
For `O=C(NCC1CCCO1)C(C(=O)c1ccc(F)cc1)n1ccccc1=O` (configuration not stated), the “activity change, negative = inhibition” value was inactive: -7.25%.
In the case of `Cc1cc2n(n1)C(c1ccco1)Nc1ccccc1-2` (configuration not stated), the Potency is reported as active: 3.16 µM.
In the case of `O=C(Nc1ccc2[nH]c3c(c2c1)CCCC3)c1ccco1`, the “activity change, negative = inhibition” value is reported as inactive: -5.73%.
For `Cc1cc(C)n(-c2nnc(C)c(=O)[nH]2)n1`, the Potency was inconclusive: 0.01 µM [falling, partial curve, poor fit].
In the case of `COC(=O)c1ccc(C(NC(=O)OCc2ccccc2)/C(I)=C/[C@@H](C)C(=O)NCc2ccc(C)o2)cc1` (some centres not stated), the activity change, negative = inhibition is reported as inconclusive: -24.1%.
In the case of `CCSc1nnc2c(n1)[nH]c1c(C)cccc12`, the Potency is reported as inconclusive: 10 µM [rising, partial curve].
For `Cc1ccc(-c2cc(-c3ccc(F)cc3)nc(N)c2C#N)o1`, the “activity change, negative = inhibition” value was inactive: 9.27%.
For `O=C(N[C@@H](Cc1ccccc1)C(=O)CCl)OCc1ccccc1`, the activity change, negative = inhibition was inconclusive: -29.1%.
In the case of `COc1ccccc1NC(=O)CN1CCN(C2c3ccccc3-c3ccccc32)CC1`, the Potency is reported as inconclusive: 0.794 µM [rising, full curve].
With `COC(=O)C1=CN(CC2CCCO2)C=C(C(=O)OC)C1c1cc(OC)c(OC)c(OC)c1` (configuration not stated) the Potency was active: 10 µM.
For `Cc1onc(-c2ccccc2Cl)c1C(=O)Nc1ccc(-n2nncc2-c2ccco2)cc1`, the “activity change, negative = inhibition” value was inactive: 4.82%.
In the case of `Cc1noc(C)c1C(=O)OCC(=O)Nc1ccccc1C(=O)NC(C)c1ccccc1` (configuration not stated), the Potency is reported as inconclusive: 15.8 µM [rising, single point].
With `CCNc1ncc2nc(-c3ccccc3)c(=O)n(CCOC)c2n1` the Potency was inconclusive: 3.98 µM [rising, partial curve].
In the case of `Cc1ccc(S(=O)(=O)NC(=O)NC(C)(C)C)cc1`, the activity change, negative = inhibition is reported as inconclusive: 7.08% [at 7.6 µM].
In the case of `COc1cccc(-c2cn3nc4c(nc3n2)CCCC4)c1`, the Potency is reported as inconclusive: 10 µM [rising, partial curve].
For `COc1ccc(-c2noc(CCC(=O)N3CCN(c4cc(C)ccc4C)CC3)n2)cc1`, the Potency was inconclusive: 6.31 µM [rising, partial curve, poor fit].
With `O=C(NCCOc1nc(N2CCCCC2)nc(N2CCOCC2)n1)Nc1ccccc1` the Potency was inconclusive: 12.6 µM [rising, partial curve].
For `CC(C)C(C(=O)NCc1ccco1)N(C(=O)CNS(=O)(=O)c1ccc(Cl)cc1)C1CCCC1` (configuration not stated), the activity change, negative = inhibition was inconclusive: -21.6%.
With `CCOc1ccccc1-n1c(SCC(=O)NC2CCCC2)nnc1-c1ccoc1C` the Potency was inconclusive: 0.1 µM [falling, single point].
In the case of `C=CCn1c(SCC(=O)NCC2CCCO2)nc2scc(-c3ccco3)c2c1=O` (configuration not stated), the Potency is reported as active: 6.31 µM.
In the case of `CC(C)(C)OC(=O)N1CCC(c2c(C(=O)O)cnn2-c2ccccc2Cl)CC1`, the activity change, negative = inhibition is reported as inconclusive: -13%.
For `NC1=NC(=O)CC(C(=O)NCCc2ccccc2)S1` (configuration not stated), the “activity change, negative = inhibition” value was inactive: 3.49%.
For `CC(NC(=O)CC1Nc2ccccc2NC1=O)c1ccccc1` (configuration not stated), the “activity change, negative = inhibition” value was inactive: 11.1%.
With `COc1ncc2nc(C)c(=O)n(CCC#N)c2n1` the Potency was inconclusive: 25.1 µM [rising, single point].
In the case of `CCOC(=O)C1CCN(C(=O)Nc2ccc3c(c2)nc(C)n3C)CC1`, the “activity change, negative = inhibition” value is reported as inactive: 1.46%.
For `CSc1nnc2c3c4c(sc3c(=O)n(-c3ccccc3)n12)CC(C)(C)OC4`, the Potency was inconclusive: 15.8 µM [rising, partial curve].
In the case of `O=C(CCNC(=O)Cn1ccc2ccccc2c1=O)NCCN1CCN(c2ccccc2F)CC1`, the “activity change, negative = inhibition” value is reported as inactive: 1.81%.
With `COc1ccccc1N1CCN(S(=O)(=O)c2cccc3nsnc23)CC1` the “activity change, negative = inhibition” value was inactive: -7.91%.
With `COc1ccc(OC)c(C2C=C(c3ccc(C)c(C)c3)Nc3nnnn32)c1` (configuration not stated) the activity change, negative = inhibition was inconclusive: 27.9%.
For `COc1ccc(-c2nc(C)c(C(C)=O)n2O)cc1OC`, the Potency was inconclusive: 3.16 µM [rising, partial curve].
For `CCOC(=O)COc1ccc(S(=O)(=O)N2CCN(C(=O)OCC)CC2)cc1`, the “activity change, negative = inhibition” value was inactive: -1.27%.
For `CN1C[C@@H](C(=O)N[C@]2(C)O[C@]3(O)[C@H]4CCCN4C(=O)[C@H](Cc4ccccc4)N3C2=O)C[C@H]2c3cccc4[nH]cc(c34)C[C@@H]21`, the “activity change, negative = inhibition” value was inactive: -26%.
In the case of `COc1cccc2c(=O)c3c(cnn3C)n(C)c12`, the Potency is reported as active: 10 µM.
For `CCOC(=O)c1cnc(SCC(=O)Nc2nc(C)c(C)s2)nc1N`, the Potency was inconclusive: 7.94 µM [rising, partial curve].
With `CC(=O)c1c(N)[nH]c(-c2ccccc2)nc1=S` the activity change, negative = inhibition was inconclusive: 24.4%.
With `Cc1ccc(SC(C)c2nc(-c3ccccc3)no2)cc1` (configuration not stated) the activity change, negative = inhibition was inconclusive: -9.31%.
For `CCOC(=O)C1=C(C)NC(=O)NC1c1ccc(OC)c(CN2CCOCC2)c1` (configuration not stated), the “activity change, negative = inhibition” value was inactive: 6.28%.
For `Cc1cc(C)nc(SCNC(=O)c2ccc(F)cc2)n1`, the activity change, negative = inhibition was inconclusive: 21.2%.
In the case of `CC(Nc1cc(=O)n(C)c(=O)n1C)c1ccccc1` (configuration not stated), the Potency is reported as inconclusive: 0.316 µM [falling, partial curve].
With `CCn1c(SCC(=O)c2cc(OC)ccc2OC)nnc1C(C)C` the “activity change, negative = inhibition” value was inactive: 3.74%.
In the case of `Cn1c(=O)c2[nH]c(CNCc3ccccc3Cl)nc2n(C)c1=O`, the activity change, negative = inhibition is reported as inconclusive: 13.4%.
In the case of `COc1ccc(OC)c(NC(=O)C2C3CCC(O3)C2C(=O)O)c1` (configuration not stated), the Potency is reported as inconclusive: 12.6 µM [rising, single point].
For `CCNc1ncc2nc(CCc3ccccc3)c(=O)n(C[C@H]3CCCO3)c2n1`, the activity change, negative = inhibition was inconclusive: 13.7%.
With `COc1ccccc1CCn1c(=O)c(-c2ccc(F)cc2)nc2cncnc21` the activity change, negative = inhibition was inconclusive: 29.3%.
For `COC(=O)c1ccc(C(/C=C/[C@@H](C)C(=O)N(C)C)NC(=O)OCc2ccccc2)cc1` (some centres not stated), the “activity change, negative = inhibition” value was inactive: -9.72%.
For `Cc1cc(C)n2nc(SCC(=O)N(C)Cc3ccccc3)nc2n1`, the “activity change, negative = inhibition” value was inactive: 28.1%.
In the case of `O=c1c2[nH]c3cccc(Cl)c3c2ncn1Cc1ccncc1`, the Potency is reported as inconclusive: 12.6 µM [rising, single point].
For `CCOC(=O)C1=C(C)Nc2nc(C)nn2C1c1ccc(OCC)c(OC)c1` (configuration not stated), the “activity change, negative = inhibition” value was inactive: 8.09%.
For `Nc1ccc(F)cc1F`, the “activity change, negative = inhibition” value was inactive: -6.41%.
In the case of `COC(=O)C1C(=O)CC(C)(O)C(C(=O)OC)C1c1ccc2c(c1)OCO2` (configuration not stated), the “activity change, negative = inhibition” value is reported as inactive: -1.98%.
In the case of `O=C(O)Cc1ccc2[nH]c3ccc(CC(=O)O)cc3c2c1`, the activity change, negative = inhibition is reported as inconclusive: 5.96%.
With `COCCCN1Cc2cccc(C(=O)O)c2C1=O` the “activity change, negative = inhibition” value was inactive: -7.07%.
With `O=C(CSc1nnc2scc(-c3ccccc3)n12)Nc1nsc(-c2ccccc2)n1` the Potency was inconclusive: 6.31 µM [rising, partial curve].
For `O=C(Oc1ccccc1)N1CCC2(CCCN(c3ccc(-c4ccccc4)cc3)C2)CC1`, the “activity change, negative = inhibition” value was inactive: -4.29%.
With `Cc1ccc(N2CC(C)Cn3c2nc2c3c(=O)n(CC(=O)OCc3ccccc3)c(=O)n2C)cc1C` (configuration not stated) the “activity change, negative = inhibition” value was inactive: 9.22%.
With `O=c1c(-c2cc(F)cc(F)c2)nc2cnc(N3CCNCC3)nc2n1CCc1ccccc1` the Potency was inconclusive: 0.794 µM [rising, full curve].
With `COc1cccc(C(=O)Nc2ccc(C(=O)O)cc2)c1` the activity change, negative = inhibition was inconclusive: 1.43%.
With `COc1cc(C(=O)Nc2c(-c3ccccn3)c(=O)c3ccccc3n2C)cc(OC)c1OC` the Potency was active: 0.158 µM.
In the case of `N#Cc1nc(COc2cccc(Cl)c2)oc1NCc1ccncc1`, the Potency is reported as inconclusive: 10 µM [rising, single point].
With `COc1ccc(CCNc2oc(COc3ccccc3F)nc2C#N)cc1OC` the “activity change, negative = inhibition” value was inactive: 2.65%.
With `CCCCOCCCn1cnc2c([nH]c3cc(OC)ccc32)c1=O` the activity change, negative = inhibition was inconclusive: 24.2%.
With `CCCCN(C)CCCNC(=O)C1CC(=O)N(Cc2ccc(OC)cc2)C1` (configuration not stated) the activity change, negative = inhibition was inconclusive: -3.07%.
For `COc1ccc(CSc2nnnn2Cc2ccccc2)cc1OC`, the Potency was inconclusive: 5.01 µM [rising, single point].
In the case of `CN(C(=O)NC(=O)C1=C(N2CCOCC2)/C(=C/c2ccccc2)CC1)S(C)(=O)=O`, the activity change, negative = inhibition is reported as inconclusive: 10.1%.
For `CCOC(=O)N1CCC(NC(=O)c2cc(C(=O)NCc3cccc(Cl)c3)ccc2CO)CC1`, the Potency was inconclusive: 0.0631 µM [falling, full curve, poor fit].
For `O=C1[C@H]2[C@@H](C(=O)N1c1cc(Cl)cc(Cl)c1)[C@]1(C(=O)Nc3ccccc31)N1CCC[C@@H]21`, the Potency was inconclusive: 5.01 µM [falling, partial curve].
